Data from the supplement of paper PMC9446081.
Hit rate of the full screen: of about 39,000 compounds, about 220 (0.56%) showed activity. This is one part of the list.
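Note: static incubation at 37 °C against the wild-type strain, values averaged over two biological replicates.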

What follows are molecules tested on Escherichia coli K-12 BW25113 (assay: relative growth (OD600 normalised to plate interquartile mean) (fraction); higher = less growth inhibition, active = 0.2 or less). Details: 50 µM; LB; incubation time: overnight (16-24 h).
For `O=C(CCCCCNC(=O)OCc1ccc(CO[C@@H]2C[C@H](c3ccc(C(F)(F)F)cc3)C=C(C(=O)N3CCCCCCC3)O2)cc1)NO`, the relative growth was inactive: 1.02. In the case of `CC[C@H](C)[C@H]1O[C@]2(CC[C@@H]1C)C[C@@H]1C[C@@H](C/C=C(\C)[C@@H](O[C@H]3C[C@H](OC)[C@@H](O[C@H]4C[C@H](OC)[C@@H](O)[C@H](C)O4)[C@H](C)O3)[C@@H](C)/C=C/C=C3\CO[C@@H]4[C@H](O)C(C)=C[C@@H](C(=O)O1)[C@]34O)O2`, the relative growth is reported as inactive: 0.934. For `NCCNC(=O)Cc1ccc(O)cc1`, the relative growth was inactive: 0.967. In the case of `Cc1noc(C)c1CC(=O)N1CCCC[C@@H]1CCOc1cccc(CN(C)Cc2cccc3cccnc23)c1`, the relative growth is reported as inactive: 0.985. With `[N-]=[N+]=Nc1ccccc1[C@@H]1OC(c2ccc(OCCCO)cc2)=N[C@]1(CCS(=O)(=O)c1ccccc1)C(=O)NCc1ccccc1` the relative growth was inactive: 1.05. In the case of `C[C@@H]1CCCCO[C@H](CN(C)Cc2ccc3c(c2)OCO3)[C@H](C)CN([C@H](C)CO)C(=O)c2cc(NS(=O)(=O)c3ccccc3)ccc2O1`, the relative growth is reported as inactive: 1.02. For `Cn1cnc(S(=O)(=O)N[C@@H]2C=C[C@@H](CC(=O)NCC3CC3)O[C@H]2CO)c1`, the relative growth was inactive: 0.906. In the case of `C[C@H]1CN([C@@H](C)CO)C(=O)c2cc(NC(=O)Cn3cnnn3)ccc2O[C@H]1CN(C)S(=O)(=O)c1ccccc1`, the relative growth is reported as inactive: 0.965. In the case of `COc1ccc(S(=O)(=O)Nc2ccc3c(c2)C(=O)N([C@H](C)CO)C[C@H](C)[C@@H](CN(C)C(=O)CCC(F)(F)F)OCCCC[C@@H](C)O3)cc1`, the relative growth is reported as inactive: 0.995. With `C[C@@H]1CCCCO[C@@H](CN(C)Cc2ccncc2)[C@H](C)CN([C@H](C)CO)C(=O)c2cc(NC(=O)Nc3ccc(C(F)(F)F)cc3)ccc2O1` the relative growth was inactive: 0.993. For `C[C@H]1CN([C@@H](C)CO)C(=O)Cc2cc(NC(=O)c3ccncc3)ccc2O[C@H]1CN(C)Cc1ccc(Oc2ccccc2)cc1`, the relative growth was inactive: 0.99. With `CCNC(=O)C[C@@H]1C=C[C@@H](NC(=O)C2CC2)[C@@H](CO)O1` the relative growth was inactive: 0.977. `COc1ccc(C#Cc2ccc3c(c2)[C@]2(C(=O)N3)[C@H](C(=O)O)[C@H]3C(=O)O[C@H](c4ccccc4)[C@H](c4ccccc4)N3[C@@H]2c2ccc(O)cc2)cc1` was tested, and the relative growth was inactive: 1.02. `CO[C@@H]1CN(C)C(=O)c2ccc(NC(=O)Nc3c(C)noc3C)cc2OC[C@@H](C)N(C(=O)Nc2cccc(Cl)c2)C[C@H]1C` was tested, and the relative growth was inactive: 0.935. For `Cn1nc(C#N)c2c1CN(S(C)(=O)=O)CCC2`, the relative growth was inactive: 1.05. In the case of `COC(=O)c1ccc([C@H]2C=C(C(=O)N3CCOCCOCCOCCOCC3)O[C@@H](OCCCCO)C2)cc1`, the relative growth is reported as inactive: 1. `CC(C)C#Cc1ccc2c(c1)O[C@H](CN(C)C(=O)c1cnccn1)[C@H](C)CN([C@H](C)CO)S2(=O)=O` was tested, and the relative growth was inactive: 0.974. In the case of `COc1ccc(NC(=O)O[C@H]2[C@@H]3OC(=O)[C@@H](Cc4ccc5ccccc5c4)C/C=C/C[C@H](Cc4ccc5ccccc5c4)C(=O)O[C@H]3[C@@H](OC)O[C@@H]2CO)cc1`, the relative growth is reported as inactive: 1.01. `O=C(C[C@H]1CC[C@@H]2[C@H](COC[C@H](O)CN2C(=O)c2cnccn2)O1)NCc1ccc(Oc2ccccc2)cc1` was tested, and the relative growth was inactive: 1. In the case of `C[C@H](CO)N1C[C@H](C)[C@H](CN(C)Cc2ccc(C(F)(F)F)cc2)Oc2ccc(NC(=O)C3CCCCC3)cc2CC1=O`, the relative growth is reported as inactive: 0.938. With `C[C@@H]1CN([C@@H](C)CO)S(=O)(=O)c2ccc(C#Cc3ccc(F)cc3)cc2O[C@H]1CN(C)C(=O)c1ccccn1` the relative growth was inactive: 1.03. With `CC(C)c1noc(CNC(=O)CN)n1` the relative growth was inactive: 0.982. For `C[C@@H]1CCCCO[C@@H](CN(C)Cc2ccc(C(=O)Nc3ccccc3N)cc2)[C@@H](C)CN([C@H](C)CO)C(=O)c2cc(NS(=O)(=O)c3cccs3)ccc2O1`, the relative growth was inactive: 1. For `Cc1nn(C)cc1NC(=O)C[C@@H]1CC[C@@H]2[C@@H](COc3ccc(NC(=O)C4CCOCC4)cc3C(=O)N2C)O1`, the relative growth was inactive: 0.992. With `Cc1ccc(/C=c2\sc3ncnn3c2=O)o1` the relative growth was inactive: 1.02. For `CC1CCC2C(C)(C)C3CC12CCC3(C)O` (stereo not given), the relative growth was inactive: 1.05. `C[C@H]1CN([C@@H](C)CO)C(=O)Cc2cc(NC(=O)Cc3cn(C)c4ccccc34)ccc2O[C@H]1CN(C)C(=O)Nc1ccc(C(F)(F)F)cc1` was tested, and the relative growth was inactive: 0.992. In the case of `C[C@H](CO)N1C[C@H](C)[C@H](CN(C)Cc2ccc(Cl)c(Cl)c2)Oc2c(NC(=O)c3ccc(-c4nccs4)cc3)cccc2C1=O`, the relative growth is reported as inactive: 1. In the case of `COc1ccc(-c2coc3c(OC)c(OC)cc(O)c3c2=O)cc1`, the relative growth is reported as inactive: 0.991. With `Cc1ccc(S(=O)(=O)N(C)C[C@@H]2Oc3cc(C#Cc4ccncc4)ccc3S(=O)(=O)N([C@@H](C)CO)C[C@@H]2C)cc1` the relative growth was inactive: 1.03. For `C[C@@H]1CN([C@H](C)CO)C(=O)c2cc(C#CC3(O)CCCC3)cnc2O[C@H]1CN(C)C(=O)Cc1cccnc1`, the relative growth was inactive: 0.98. `C[C@@H]1CN([C@H](C)CO)C(=O)c2cc(NC(=O)c3ccccc3)ccc2O[C@@H](C)CCCCO[C@@H]1CN(C)C(=O)C1CCCCC1` was tested, and the relative growth was inactive: 1.01. For `CC(=O)NCC(=O)N1CCC2(CC1)C(=O)N(CC1CC1)CCN2C`, the relative growth was inactive: 1. `C[C@@H]1CN([C@H](C)CO)C(=O)Cc2cc(NS(=O)(=O)c3ccc(F)cc3)ccc2O[C@H]1CN(C)S(=O)(=O)c1ccccc1` was tested, and the relative growth was inactive: 1.02. With `C=CCC[C@H](Cc1ccc(F)cc1)C(=O)O[C@@H](CNC(=O)[C@@H](CC=C)CC(=O)N[C@@H](CO)Cc1ccccc1)c1ccccc1` the relative growth was inactive: 1.01. `Cc1ccc(S(=O)(=O)N2C[C@@H](O)COC[C@H]3O[C@H](CC(=O)NCc4cccc(Cl)c4)CC[C@@H]32)cc1` was tested, and the relative growth was inactive: 0.989. For `Cc1noc(C)c1S(=O)(=O)Nc1ccc2c(c1)C(=O)N([C@H](C)CO)C[C@H](C)[C@H](CN(C)C)OCCCC[C@H](C)O2`, the relative growth was inactive: 0.845. `C[C@@H]1CN([C@@H](C)CO)C(=O)c2cc(NC(=O)Cc3ccccc3)ccc2O[C@@H](C)CCCCO[C@@H]1CN(C)C(=O)Nc1cccc2ccccc12` was tested, and the relative growth was inactive: 1.04. `COc1ccc(CN(C)C[C@@H]2Oc3ccc(NS(=O)(=O)c4cn(C)cn4)cc3CC(=O)N([C@H](C)CO)C[C@H]2C)cc1` was tested, and the relative growth was inactive: 1.01. For `C[C@H](CO)N1C[C@H](C)[C@H](CN(C)Cc2ccc(C(=O)O)cc2)OCCCC[C@H](C)Oc2ccc(NS(=O)(=O)c3cccs3)cc2C1=O`, the relative growth was inactive: 1.01. With `O=C(Nc1nn[nH]n1)C1CCCCC1` the relative growth was inactive: 0.994. In the case of `C[C@H]1CN([C@@H](C)CO)C(=O)c2ccccc2-c2ccccc2CO[C@H]1CN(C)Cc1ccc(Cl)c(Cl)c1`, the relative growth is reported as inactive: 0.999. With `CN1CCN(C(=O)C[C@@H]2CC[C@@H]3[C@@H](COc4ccc(NC(=O)c5cscn5)cc4C(=O)N3C)O2)CC1` the relative growth was inactive: 0.991. With `Cc1ccccc1N1C(=O)c2cc(S(N)(=O)=O)c(Cl)cc2NC1C` (stereo not given) the relative growth was inactive: 1.12. `C[C@H]1CN([C@@H](C)CO)C(=O)c2cc(C3=CCCC3)cnc2O[C@@H]1CN(C)C(=O)Nc1ccc(C(F)(F)F)cc1` was tested, and the relative growth was inactive: 0.999. For `C[C@@H]1CN([C@H](C)CO)C(=O)Cc2cc(NC(=O)Cn3cnnn3)ccc2O[C@H]1CN(C)Cc1ccncc1`, the relative growth was inactive: 0.971. For `C[C@H]1CN([C@@H](C)CO)C(=O)c2cccc(NC(=O)c3cnccn3)c2O[C@H]1CN(C)S(C)(=O)=O`, the relative growth was inactive: 0.951. In the case of `Cc1ccc(S(=O)(=O)Nc2ccc3c(c2)C(=O)N([C@@H](C)CO)C[C@@H](C)[C@@H](CN(C)S(C)(=O)=O)OCCCC[C@@H](C)O3)cc1`, the relative growth is reported as inactive: 1.01. In the case of `CC(C)NC(=O)N(C)C[C@@H]1Oc2ccc(NS(=O)(=O)c3ccc(Cl)cc3)cc2C(=O)N([C@H](C)CO)C[C@@H]1C`, the relative growth is reported as inactive: 0.994. For `C[C@@H]1CN([C@H](C)CO)C(=O)Cc2cc(NC(=O)c3ccncc3)ccc2O[C@H]1CN(C)Cc1ccc(-c2ccccc2)cc1`, the relative growth was inactive: 1.04. With `C[C@H]1CCCCO[C@@H](CN(C)C(=O)CCC(F)(F)F)[C@@H](C)CN([C@@H](C)CO)C(=O)c2cc(NC(=O)c3ccccc3)ccc2O1` the relative growth was inactive: 1.05. With `C[C@@H]1CCCCO[C@H](CN(C)Cc2ccc(C(=O)O)cc2)[C@@H](C)CN([C@H](C)CO)C(=O)c2cc(NC(=O)Nc3ccc(F)cc3)ccc2O1` the relative growth was inactive: 1.02. In the case of `O=C(O)CCN=C1NC(=O)CS1`, the relative growth is reported as inactive: 0.99. With `C[C@@H]1CN([C@H](C)CO)C(=O)c2cc(NS(=O)(=O)c3ccc(Cl)cc3)ccc2O[C@@H](C)CCCCO[C@@H]1CN(C)CC1CCCCC1` the relative growth was inactive: 1.02. With `CC(C)NC(=O)Nc1ccc2c(c1)CC(=O)N([C@@H](C)CO)C[C@@H](C)[C@@H](CN(C)C(=O)Nc1ccc3c(c1)OCO3)O2` the relative growth was inactive: 0.993. In the case of `C[C@@H]1CN([C@@H](C)CO)C(=O)c2cc(NC(=O)Cn3cnnn3)ccc2O[C@@H]1CN(C)Cc1ccc(-c2ccccc2)cc1`, the relative growth is reported as inactive: 0.993. In the case of `C[C@@H]1CN([C@@H](C)CO)C(=O)c2cccc(NC(=O)C3CC3)c2O[C@@H]1CN(C)C(=O)NC1CCCCC1`, the relative growth is reported as inactive: 1.03. With `C[C@@H]1CN([C@H](C)CO)C(=O)c2cccc(NC(=O)c3ccc(-c4nccs4)cc3)c2O[C@H]1CN(C)Cc1ccc(C(=O)Nc2ccccc2N)cc1` the relative growth was inactive: 1.01. In the case of `NC[C@@H](O)C1CCCCC1`, the relative growth is reported as inactive: 0.967. With `Cn1cnc(S(=O)(=O)N[C@@H]2C=C[C@H](CC(=O)N3CCN(c4ccccc4)CC3)O[C@@H]2CO)c1` the relative growth was inactive: 1.02.
